Test results from the antibiotic and cytotoxicity screens of Wong et al. (2023).
This is one part of the list.

Each molecule was assayed on S. aureus RN4220 (assay: growth inhibition call (relative growth <= 0.2)). Conditions: 50 µM.

| Compound | growth inhibition call |
| --- | --- |
| CO[C@@H]1CN(C)C(=O)c2ccc(NC(=O)NC(C)C)cc2OC[C@@H](C)N(Cc2ccc(-c3ccccn3)cc2)C[C@@H]1C | inactive |
| C=CCCCCCCCCC(=O)O | inactive |
| C[C@@H]1CCCCO[C@@H](CN(C)S(=O)(=O)c2ccc(Cl)cc2)[C@H](C)CN([C@@H](C)CO)C(=O)c2cc(NC(=O)c3ccncc3)ccc2O1 | inactive |
| CN(C)C(=N)NC(=N)N.Cl | inactive |
| C[C@H](O)C#Cc1ccc2c(c1)O[C@@H](CN(C)C(=O)c1ccccc1)[C@H](C)CN([C@@H](C)CO)S2(=O)=O | inactive |
| Cc1ccc(S(=O)(=O)N(C)C[C@@H]2OCCCC[C@@H](C)Oc3ccc(NS(=O)(=O)c4ccc(Cl)cc4)cc3C(=O)N([C@H](C)CO)C[C@@H]2C)cc1 | inactive |
| C[C@@H]1CN([C@H](C)CO)C(=O)c2cccc(NC(=O)C3CCOCC3)c2O[C@H]1CN(C)S(=O)(=O)c1cn(C)cn1 | inactive |
| CC(C)NC(=O)N(C)C[C@@H]1Oc2ccc(NS(=O)(=O)c3ccccc3)cc2CC(=O)N([C@H](C)CO)C[C@@H]1C | inactive |
| O=C(N[C@H]1C=C[C@H](CC(=O)N2CCOCC2)O[C@H]1CO)c1ccc2c(c1)OCO2 | inactive |
| C[C@@H]1CN([C@H](C)CO)C(=O)c2cc(NC(=O)CCCN(C)C)ccc2O[C@H]1CN(C)S(=O)(=O)c1ccc(Cl)cc1 | inactive |
| C[C@@H]1CN([C@@H](C)CO)C(=O)c2cc(NS(=O)(=O)c3cn(C)cn3)ccc2O[C@@H]1CN(C)Cc1ccc(C(=O)Nc2ccccc2N)cc1 | inactive |
| COc1ccc(NC(=O)N(C)C[C@H]2OCCCC[C@H](C)Oc3ccc(NC(=O)Nc4ccc(F)cc4)cc3C(=O)N([C@@H](C)CO)C[C@@H]2C)cc1 | inactive |
| CCCCOc1ccc(C(=O)C2=C(O)C(=O)N(Cc3cccnc3)[C@H]2c2ccc(O)c(OCC)c2)c(C)c1 | inactive |
| CO[C@@H]1CN(C)C(=O)c2ccc(NS(=O)(=O)CC(F)(F)F)cc2OC[C@@H](C)N(C(=O)NC(C)C)C[C@H]1C | inactive |
| C[C@H]1CN([C@@H](C)CO)C(=O)Cc2cc(NC(=O)Nc3ccc4c(c3)OCO4)ccc2O[C@H]1CN(C)Cc1ccc(C(F)(F)F)cc1 | inactive |
| Oc1ccc(F)c2ccccc12 | inactive |
| C[C@@H]1CN([C@@H](C)CO)C(=O)c2cc(NC(=O)CCCCCC(=O)Nc3ccccc3N)ccc2O[C@H]1CN(C)Cc1ccccc1 | inactive |
| CNC(=O)C[C@@H]1CC[C@H]2[C@H](COc3ccc(NC(=O)c4ccc(C(F)(F)F)cc4)cc3C(=O)N2C)O1 | inactive |
| C[C@@H]1CN([C@@H](C)CO)C(=O)c2cc(NS(=O)(=O)c3ccccc3)ccc2O[C@@H](C)CCCCO[C@@H]1CN(C)CC1CCCCC1 | inactive |
| Cn1cnc(S(=O)(=O)N2C[C@@H](O)COC[C@@H]3O[C@H](CC(=O)NCc4cccc(F)c4)CC[C@H]32)c1 | inactive |
| COCC#Cc1ccc([C@H]2[C@H]3CN(C(=O)c4cccnc4)CC(=O)N3[C@H]2CO)cc1 | inactive |
| C[C@@H]1CN([C@H](C)CO)C(=O)c2cccc(NC(=O)c3cnccn3)c2O[C@H]1CN(C)S(=O)(=O)c1ccccc1 | inactive |
| COc1ccc2c3c([nH]c2c1)[C@H](CO)N(C[C@]13CN(CC2CCCCC2)C1)C(=O)Nc1cccc(c1)F | active |
| Nc1nc(Cl)nc2c1ncn2[C@H]1C[C@@H](O)[C@@H](COP(=O)(O)OP(=O)(O)OP(=O)(O)O)O1 | inactive |
| C[C@@H]1CN([C@@H](C)CO)C(=O)c2cc(NS(=O)(=O)c3ccc(F)cc3)ccc2O[C@@H](C)CCCCO[C@@H]1CN(C)C(=O)Nc1cccc2ccccc12 | inactive |
| C[C@@H]1CN([C@H](C)CO)S(=O)(=O)c2ccc(Br)cc2O[C@H]1CN(C)C(=O)Nc1ccccc1 | inactive |
| O=C(C[C@H]1CC[C@H]2[C@@H](COC[C@@H](O)CN2S(=O)(=O)c2ccccc2)O1)N1CCOCC1 | inactive |
| COc1ccc(S(=O)(=O)Nc2cccc3c2O[C@H](CN(C)C(=O)Nc2cccc4ccccc24)[C@H](C)CN([C@@H](C)CO)C3=O)cc1 | inactive |
| C[C@H]1CN([C@@H](C)CO)C(=O)Cc2cc(NS(C)(=O)=O)ccc2O[C@H]1CN(C)C(=O)Nc1ccc(C(F)(F)F)cc1 | inactive |
| C[C@H](CO)N1C[C@H](C)[C@H](CN(C)C(=O)Nc2cccc3ccccc23)Oc2ccc(NC(=O)C3CCCCC3)cc2CC1=O | inactive |
